About 2,200 (0.71%) of roughly 310,000 compounds showed an effect of 50% or more. The effect is printed as a negative number. Some of the results follow.
These molecules were tested against human ether-à-go-go-related gene (hERG) potassium channel (human, UniProt Q12809) (assay: primary screen, population patch clamp on CHO cells stably expressing hERG).
human ether-à-go-go-related gene (hERG) potassium channel, sequence (Q12809 whole entry, looked up): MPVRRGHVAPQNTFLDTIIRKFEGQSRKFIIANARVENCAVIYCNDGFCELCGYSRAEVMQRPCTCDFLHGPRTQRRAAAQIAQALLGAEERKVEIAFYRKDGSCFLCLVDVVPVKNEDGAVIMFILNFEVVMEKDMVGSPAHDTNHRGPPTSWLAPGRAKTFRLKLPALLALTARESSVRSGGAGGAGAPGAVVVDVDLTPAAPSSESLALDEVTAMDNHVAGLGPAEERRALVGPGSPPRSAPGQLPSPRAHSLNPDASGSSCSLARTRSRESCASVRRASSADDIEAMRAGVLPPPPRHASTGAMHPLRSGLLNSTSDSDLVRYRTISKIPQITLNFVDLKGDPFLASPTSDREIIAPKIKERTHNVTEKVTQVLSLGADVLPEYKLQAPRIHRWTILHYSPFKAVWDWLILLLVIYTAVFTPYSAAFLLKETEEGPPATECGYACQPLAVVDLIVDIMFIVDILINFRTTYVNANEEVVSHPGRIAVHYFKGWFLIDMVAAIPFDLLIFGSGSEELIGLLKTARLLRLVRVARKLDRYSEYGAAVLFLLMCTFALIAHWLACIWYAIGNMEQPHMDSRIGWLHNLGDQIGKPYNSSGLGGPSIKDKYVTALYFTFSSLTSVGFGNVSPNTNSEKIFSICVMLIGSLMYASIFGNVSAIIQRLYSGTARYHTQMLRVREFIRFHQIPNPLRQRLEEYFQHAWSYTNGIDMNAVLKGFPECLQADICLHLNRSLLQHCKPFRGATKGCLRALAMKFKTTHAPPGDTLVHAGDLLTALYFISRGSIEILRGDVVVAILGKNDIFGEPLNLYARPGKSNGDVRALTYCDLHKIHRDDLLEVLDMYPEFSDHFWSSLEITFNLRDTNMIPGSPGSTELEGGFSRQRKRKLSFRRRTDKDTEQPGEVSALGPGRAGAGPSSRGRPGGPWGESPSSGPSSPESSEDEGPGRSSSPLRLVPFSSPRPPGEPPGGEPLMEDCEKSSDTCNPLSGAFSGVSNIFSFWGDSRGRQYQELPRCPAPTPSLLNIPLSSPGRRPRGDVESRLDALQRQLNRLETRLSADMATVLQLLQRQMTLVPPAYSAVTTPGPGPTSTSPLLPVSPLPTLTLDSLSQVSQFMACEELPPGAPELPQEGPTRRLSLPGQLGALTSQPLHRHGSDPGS

**Q.** Which “hERG current change (%, negative = inhibition) at 1uM” value does the source give for `Cc1ccc(Nc2nc3ccccc3nc2Nc2c(C)n(C)n(-c3ccccc3)c2=O)cc1` here?
**A.** 0.207%

**Q.** With `CC(C)(C)n1nc2c(c1NC(=O)Cc1ccc([N+](=O)[O-])cc1)CS(=O)(=O)C2` as the molecule, how does the “hERG current change (%, negative = inhibition) at 1uM” value read?
**A.** 1.17%

**Q.** `COCCNc1nnc(SCC(=O)N2CCN(S(=O)(=O)c3ccccc3)CC2)s1` was tested. Which “hERG current change (%, negative = inhibition) at 1uM” value did it give?
**A.** -3.27%

**Q.** For `O=S(=O)(NC1=NCCC1)c1ccc(F)cc1F`, which “hERG current change (%, negative = inhibition) at 1uM” value is on record?
**A.** 4.09%

**Q.** Which “hERG current change (%, negative = inhibition) at 1uM” value does the source give for `CC[N+]1(C)CCC(=C2c3ccccc3CC(=O)c3sccc32)CC1.[Br-]` (stereo not drawn) here?
**A.** 5.25%

**Q.** `Cc1cc(=O)[nH]c(N/N=C/c2c(C)oc3ccccc23)n1` was tested. Which “hERG current change (%, negative = inhibition) at 1uM” value did it give?
**A.** 10.1%

**Q.** Which “hERG current change (%, negative = inhibition) at 1uM” value does the source give for `CC(=O)Nc1ccc(S(=O)(=O)NCCC(=O)Nc2ccc(C)c(Cl)c2)cc1` here?
**A.** 3.79%

**Q.** How did the “hERG current change (%, negative = inhibition) at 1uM” value turn out when `Cc1ccc2cc(-c3noc(C(C)(C)C)n3)c(=O)[nH]c2c1` was run?
**A.** -10.3%

**Q.** How did the “hERG current change (%, negative = inhibition) at 1uM” value turn out when `O=C(CN1CCN(c2ccc(O)cc2)CC1)Nc1cc(S(=O)(=O)N2CCCCC2)ccc1Cl` was run?
**A.** -1.41%

**Q.** For `FC(F)(F)c1ccc(NC2=NCCC2)cc1`, which “hERG current change (%, negative = inhibition) at 1uM” value is on record?
**A.** 6.85%

**Q.** `CCn1c(SCC(=O)NC(=O)c2ccccc2OC)nc2ccccc21` was tested. Which “hERG current change (%, negative = inhibition) at 1uM” value did it give?
**A.** -36.8%

**Q.** Which “hERG current change (%, negative = inhibition) at 1uM” value does the source give for `CCN(CC)CCOC(=O)c1ccc(Cl)cc1Cl.Cl` here?
**A.** -8.41%

**Q.** `CCOS(=O)(=O)[O-].CC[n+]1c(/C=C/Nc2ccccc2)oc2ccc(OC)cc21` was tested. Which “hERG current change (%, negative = inhibition) at 1uM” value did it give?
**A.** -68.8%

**Q.** With `CCOc1ccc(NN=C(C(=O)OC)C(=O)OC)c([N+](=O)[O-])c1` as the molecule, how does the “hERG current change (%, negative = inhibition) at 1uM” value read?
**A.** 14.3%

**Q.** How did the “hERG current change (%, negative = inhibition) at 1uM” value turn out when `c1ccc2c(c1)nc(N1CCOCC1)c1c3ccccc3[nH]c21` was run?
**A.** 13.7%

**Q.** With `CCc1cc2cc(C)c(C)cc2nc1SCC(=O)NNC(=O)c1ccco1` as the molecule, how does the “hERG current change (%, negative = inhibition) at 1uM” value read?
**A.** 17%

**Q.** `C=CCOc1nc2c(c(=O)n(C)c(=O)n2C)n1Cc1ccc(Cl)cc1Cl` was tested. Which “hERG current change (%, negative = inhibition) at 1uM” value did it give?
**A.** -3.59%

**Q.** `O=C(c1cccc([N+](=O)[O-])c1)N1CCCC(C(=O)N2CCCCCC2)C1` (stereo not drawn) was tested. Which “hERG current change (%, negative = inhibition) at 1uM” value did it give?
**A.** 9.57%

**Q.** `CC(OC(=O)C1=COCCO1)C(=O)Nc1cccc(S(=O)(=O)N2CCOCC2)c1` (stereo not drawn) was tested. Which “hERG current change (%, negative = inhibition) at 1uM” value did it give?
**A.** 10.6%

**Q.** How did the “hERG current change (%, negative = inhibition) at 1uM” value turn out when `NC(=O)c1ccc(-n2nnnc2SCC(=O)Nc2ccccc2)cc1` was run?
**A.** 17.5%

**Q.** Which “hERG current change (%, negative = inhibition) at 1uM” value does the source give for `CC(=O)C1=C(O)C(=O)N(c2ccc(O)cc2)C1c1ccccc1` (stereo not drawn) here?
**A.** 13.8%

**Q.** How did the “hERG current change (%, negative = inhibition) at 1uM” value turn out when `C/C(=N\NC(=O)c1cc(O)ccc1O)c1cccc(NC(=O)c2cccc(Cl)c2)c1` was run?
**A.** 16.4%

**Q.** Which “hERG current change (%, negative = inhibition) at 1uM” value does the source give for `Cc1cc(C(=O)NC(C)c2ccccc2)c2cc(F)ccc2n1` (stereo not drawn) here?
**A.** 0.885%

**Q.** Which “hERG current change (%, negative = inhibition) at 1uM” value does the source give for `Oc1ccccc1CNc1ncc(Br)cc1Br` here?
**A.** 7.43%

From paper PMC4336329 (PLoS ONE, 2015)
